Among the data in the RNAGym collection of RNA variant scans (doi:10.7554/elife.90254) are self-cleavage values, retold here.

The source gives no read counts; variants with many changes may rest on few reads.

The labels stand for the following.
B1: OR4K15 (parent)
chain: GUUAACGGUCAUAGGCCAUGGAAACUAGGAGCACCAUUUCGCUGCCAGUGAAGAAAUGAACAAAGAAAAUCUGGGCCAGGCAGGCAUCAAAAGAAAUAGUCUUGCGCUCAACCAGAAAGUCUGUAAUCAUUUUAAGGGUA

The data set covers variants of B1. Put plainly: self-cleavage, relative activity (ratio to wild type); higher = more cleavage; in vitro, sequencing; the parent is a self-cleaving ribozyme.
For the variant U12C A69U A90G U103C A118G, the self-cleavage was 0.06.
In the case of U12C A67G A89G A92U it was 0.15.
In the case of U12C G93A U130C it was 1.43; in that of A11G A68G U102C U103C U124C U127C, 0.05.
In the case of A11G U19A U57C A59C A82G A95G A110G U122C A126G it was 0.01; in that of U12A A30U U38C A56G, 0.79.
A11U U122C G138A: the self-cleavage is 1.36.
In the case of A11G U102A U130C it was 0.53.
In the case of U12A U38C U43C it was 2.26.
In the case of A11G C71A U127C it was 0.15; in that of U12G A69G A96G A114U, 0.04.
As for A11G U38C G41U, the self-cleavage amounted to 1.77.
For U12C U37C A94G U108C, the self-cleavage came out at 0.07.
In the case of U12C U108C U127C it was 0; in that of A11G G115A A140G, 0.29; in that of U12C A27G A94G A116G U127C, 0.14.
Consider A11G A91G A111G, for which the self-cleavage was found to be 0.03.
In the case of U12A A23U A51U it was 1.32.
In the case of U12C A52G A90G it was 1.35; in that of A11G G14A A64G, 0.76.
In the case of U12C A13G U49C A55G it was 0.56; in that of A11G U39C A62G A95G, 1.72.
On to A11U U26C U37C U39C A59U A91G A96G, for which the self-cleavage was found to be 0.96.
In the case of U12A G75A A94G it was 0.08; in that of U12A A55G A110G, 0.31.
In the case of A11G U19C A30G A51G A55G A67G A116G it was 0.57; in that of U12C U87C U108A, 0.
In the case of A11U C45U A55U A60G A64G A69G U131C it was 0.9.
For A11G U39C A52G, the self-cleavage came to 0.62.
As to A11G U19A U57C, the self-cleavage amounted to 0.76.
In the case of A11G A91G A95G A129G it was 1.17; in that of U12C G14U C17U, 0.66; in that of A11U A22G U26C, 1.02.
Regarding U12A A30U A33G A47U A63G U97C U132A, the self-cleavage came out at 0.71.
For U12C U38G U39C U103C, the self-cleavage came to 0.91.
In the case of A11G A86G A89U it was 1.63; in that of A11U U38C U57A U72C A89G, 0.28.
In the case of U12A A63G A89U U100C it was 2.04.
In the case of U12C A89U A111U A118U it was 0.01; in that of U12C A23G A55U G106A U122C, 0.01.
A11G U43A U87C: the self-cleavage was found to be 1.49.
In the case of U12C A24G U43A A63G A117G it was 1.57; in that of U12C U49C U122C, 0.74; in that of U12C A30G A114U, 0.16.
In the case of A11G U39C A62G it was 0.51.
For U12C A22G U131C, the self-cleavage worked out at 0.37.
In the case of A11U A52C A140G it was 0.46.
Regarding U12C A23U A24C A126U, the self-cleavage worked out at 1.23.
In the case of U12C A52G U103C, the self-cleavage is 0.89.
For A11U A47G G93A, the self-cleavage amounted to 0.75.
With U12A A51G A66G U100C C109U, the self-cleavage was found to be 0.44.
In the case of A11G U43C A95G it was 1.64.
In the case of U12C A47U C109U it was 0.36; in that of U12G A24G U38G C107A A117G, 0; in that of U12C A30G A54G A66G A111G, 0.01.
In the case of U12A U49C A89G A94G A98C U131C it was 1.08; in that of A11G A66U A126G, 0.47; in that of A11G U102C U103A, 0.14.
In the case of A11G G119A U130C, the self-cleavage came out at 1.33.
In the case of U12A U19C A22G A66C A114C it was 0; in that of A11G U49A G53U A64G U87C A126U, 1.23.
In the case of U12A U39A A64G U108C U122C it was 0.02.
In the case of A11U A54G A63G A68G U127C it was 0.91.
For the variant U12A A13G A54G C113U C128U, the self-cleavage turned out to be 0.09.
In the case of U12C A18U A60G U70C A86U it was 1.15.
As to U12C A89G A140G, the self-cleavage was 0.65.
On to U12C A36U A89G, for which the self-cleavage came to 1.04.
Regarding A11G U19A A54G, the self-cleavage stood at 1.42.
In the case of A11G A66G A94G it was 0.61; in that of U12A A56G A111G, 0.
In the case of A11G U26A C85A A117G it was 1.64.
In the case of A11G A64G U87C A110U it was 0.98.
As for U12C A24G A116G U122C, the self-cleavage stood at 0.74.
On to A11G U39A U43C A60G C105U U108C A114U, for which the self-cleavage stood at 0.01.
In the case of A11G A82U U127C it was 0.06; in that of U12A A126G C128U, 0.39.
For the variant U12C A125G A126G, the self-cleavage is 0.22.
In the case of A11U A82G U100A it was 0.11; in that of A11U U38C U57A, 0.8.
As to A11U C76A U127C, the self-cleavage was 0.15.
In the case of U12A A52G U87C it was 1.1; in that of A11G A89G U131C, 0.69; in that of U12C A55G U70C A78C A91G A125C, 0.13.
In the case of U12C G28C A60U it was 2.69.
